Experimental data from article PMC4336329 (PLoS ONE, 2015).
Among all 310,000 compounds or so, about 14,000 (4.5%) showed an effect of 50% or more. Effects have a minus sign here. This is one part of the list.

Target: human ether-à-go-go-related gene (hERG) potassium channel (human, UniProt Q12809)
Assay: primary screen, population patch clamp on CHO cells stably expressing hERG
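Note: peak tail current of the secondary pulse compared with the same well before compound.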

Chain of human ether-à-go-go-related gene (hERG) potassium channel (Q12809 whole entry, looked up): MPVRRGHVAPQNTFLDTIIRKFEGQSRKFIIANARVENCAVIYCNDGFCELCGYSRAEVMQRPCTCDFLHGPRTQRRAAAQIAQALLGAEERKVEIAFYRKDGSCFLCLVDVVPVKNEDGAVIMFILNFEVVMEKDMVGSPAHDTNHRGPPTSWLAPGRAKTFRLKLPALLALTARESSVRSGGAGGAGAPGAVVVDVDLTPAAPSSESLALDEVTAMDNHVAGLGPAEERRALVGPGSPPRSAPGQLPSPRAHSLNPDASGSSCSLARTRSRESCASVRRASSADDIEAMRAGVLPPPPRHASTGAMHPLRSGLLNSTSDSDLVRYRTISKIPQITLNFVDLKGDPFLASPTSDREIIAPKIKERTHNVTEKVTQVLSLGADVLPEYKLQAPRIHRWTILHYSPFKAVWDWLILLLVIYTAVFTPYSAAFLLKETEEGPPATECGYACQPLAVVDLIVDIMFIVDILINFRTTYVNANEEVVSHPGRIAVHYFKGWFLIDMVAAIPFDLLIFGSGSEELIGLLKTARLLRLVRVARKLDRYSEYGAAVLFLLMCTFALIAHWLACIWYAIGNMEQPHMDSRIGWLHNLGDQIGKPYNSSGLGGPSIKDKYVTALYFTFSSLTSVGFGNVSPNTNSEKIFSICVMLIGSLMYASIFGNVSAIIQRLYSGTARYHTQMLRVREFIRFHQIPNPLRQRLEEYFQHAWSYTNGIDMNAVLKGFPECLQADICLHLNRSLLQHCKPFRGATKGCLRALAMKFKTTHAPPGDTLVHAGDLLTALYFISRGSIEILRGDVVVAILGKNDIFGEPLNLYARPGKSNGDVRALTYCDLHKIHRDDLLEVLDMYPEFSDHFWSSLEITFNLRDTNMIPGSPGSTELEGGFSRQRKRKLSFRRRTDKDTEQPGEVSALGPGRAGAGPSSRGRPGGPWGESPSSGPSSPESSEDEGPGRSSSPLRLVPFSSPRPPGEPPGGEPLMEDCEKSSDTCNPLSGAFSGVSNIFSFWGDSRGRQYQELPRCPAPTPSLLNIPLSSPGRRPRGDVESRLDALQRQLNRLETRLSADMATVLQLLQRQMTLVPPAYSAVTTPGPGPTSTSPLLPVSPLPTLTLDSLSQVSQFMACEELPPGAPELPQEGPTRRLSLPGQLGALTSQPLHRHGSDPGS

Point of comparison: `Cc1c(Cl)c([N+](=O)[O-])nn1CCCC(=O)Nc1cccc(O)c1`, “hERG current change (%, negative = inhibition) at 10uM” value -10.8%. Against it:
- CCOc1ccc(CN(C(=O)c2oc3cc(C)ccc3c2C)C2CCS(=O)(=O)C2)cc1 (stereo not shown) — higher, -10%
- O=C(Nc1sc2c(c1C(=O)NCC1CCCO1)CCCC2)c1cccs1 (stereo not shown) — higher, 11.7%
- O=C(CO/N=C/c1c(Cl)cccc1Cl)NNC(=O)c1ccc(Cl)cc1 — higher, 8.46%
- COc1ccc(NC(=O)CCNS(=O)(=O)c2cccc3nonc23)cc1 — higher, 1.82%
- Cc1ccc(-n2c(N)c(C#N)c(-c3ccccc3)c(C#N)c2=O)cc1 — higher, 1.05%
- CN1C(=O)C(O)(C2COC(C)(C)CC2=O)c2ccccc21 (stereo not shown) — higher, 4.26%
- O=C(NC(=S)NCC1CCCO1)c1ccc(Cl)cc1 (stereo not shown) — higher, -7.34%
- O=C(COc1ncnc2ccccc12)Nc1ccc(Cl)c(S(=O)(=O)N2CCOCC2)c1 — lower, -13.5%
- O=S(=O)(NCc1cc(-c2ccc(Cl)cc2)no1)c1ccc(Cl)cc1 — higher, -1.55%
- Cc1ccc(C)c(N2CCN(C(c3ccc(N(C)C)cc3)c3nnnn3C(C)(C)C)CC2)c1 (stereo not shown) — higher, 8.2%
- O=C(c1ccc(C(F)(F)F)cc1)C1CCCN(C(=O)CCN2CCCO2)C1 (stereo not shown) — lower, -11.9%
- Cc1ccccc1CSCc1nc2ccccc2[nH]1 — higher, -3.08%
- COc1ccc(OCCNC(=O)c2ccccc2Cl)cc1 — higher, 7.62%
- Cc1ccc2oc(=O)cc(CN3CCCCC3)c2c1 — higher, 15.9%
- Cc1csc(=O)n1CC(=O)OCC(=O)Nc1cc(S(=O)(=O)N2CCOCC2)ccc1Cl — higher, -5.05%
- CC(=O)Nc1ccc(S(=O)(=O)NCC(=O)OCC(=O)NC(=O)c2cccn2C)cc1 — higher, -2.65%
- CC(CNC(=O)c1cc(COc2c(F)cccc2F)on1)Oc1cccnc1 (stereo not shown) — lower, -18.6%
- Cc1ccc(-c2cc(-c3ccc(Cl)cc3)c(C#N)c(N)n2)o1 — higher, -8.33%
- O=C(CCCN1C(=O)S/C(=C/C=C/c2ccccc2)C1=O)Nc1ccc(C(=O)O)cc1 — higher, 15%
- CN(C)S(=O)(=O)c1ccc(NC(=O)C2CC(=O)N(Cc3ccccc3)C2)cc1 (stereo not shown) — higher, 14.9%
- COc1ccc(CCN2CC(C(=O)Nc3nnc(Cc4ccccc4)s3)CC2=O)cc1OC (stereo not shown) — higher, -5.35%
- CCN1C(=O)CS/C1=C(\C#N)S(=O)(=O)c1ccccc1 — higher, 8.57%
- O=C(Nc1ccc(C(=O)N2CCCCC2)cc1)c1ccccc1Cl — lower, -14.3%
- CCOC(=O)CNC(=O)C1(/C=C/c2ccccc2)CC(=O)N1c1ccc(OC)cc1 (stereo not shown) — lower, -11.1%
- CCCCn1c(N)c(N(CC)C(=O)c2ccccc2F)c(=O)[nH]c1=O — higher, 27.9%
- Cc1ccccc1Cn1c2ccccc2c2cnn(CC(=O)NCc3ccco3)c(=O)c21 — higher, 10.9%
- CC(=O)OC[C@H]1O[C@H](C/C=N/O[C@@H](C)c2cn([C@H](CO)Cc3ccccc3)nn2)C=C[C@@H]1OC(C)=O — higher, 3.92%
- COc1ccc(Oc2ccc(N/C=C3\CCCC3=O)cc2)cc1 — higher, 4.18%
- COC(=O)c1ccc(NC(=O)CSc2nn3c(=O)c(C)nnc3s2)cc1 — higher, 7.44%
- CC(=O)N=c1c(C#N)cc2c(=O)n3cccc(C)c3nc2n1CCCOC(C)C — lower, -50.4%
- CCOC(=O)N1CCN(S(=O)(=O)c2cc(C)c(C)cc2C)CC1 — higher, -3.19%
- Cc1nc2sc(C(c3cccs3)N3CCN(C(=O)c4ccco4)CC3)c(O)n2n1 (stereo not shown) — higher, -2.77%
- CO/N=C(\c1nonc1N)N1CCN(c2ccc([N+](=O)[O-])cc2Cl)CC1 — higher, 1.73%
- N#Cc1c(Nc2ccccc2)c(/C=N/NCCO)c[nH]c1=O — higher, 18.2%
- CCCCC(=O)Nc1ccc(NC(=O)c2ccccc2OC)cn1 — higher, -8.77%
- CC1CCc2sc(C(=O)NN)cc2C1 (stereo not shown) — higher, 21.1%
- Cc1ccc(NC(=O)C2CCN(c3cnccn3)CC2)cc1 — higher, 34.8%
- COc1ccc(O[C@H]2C=C[C@@H](c3ccccc3)O[C@@H]2COC(=O)CC/C(C)=N/OC[C@@H](O)COCc2ccco2)cc1 — lower, -11.3%
- Cc1cccc(N2CCN(C(C)C(=O)N3CCc4ccccc43)CC2)c1C (stereo not shown) — higher, 17%
- COC(=O)/C=C1\SC(=NC(=O)c2cccc([N+](=O)[O-])c2)NC1=O — higher, 10.5%
- CC(=O)c1ccc(S(=O)(=O)Nc2cccc(-c3ccc4nncn4n3)c2)cc1 — higher, 5.07%
- CC(=O)C1[C@H](N(C)C)CC2C3CC=C4CC(O)CC[C@]4(C)C3CC[C@@]21C (stereo partly shown) — higher, 5.3%
- COc1cc([N+](=O)[O-])ccc1NC(=O)COC(=O)CCOc1ccc(C)cc1 — lower, -11.2%
- Cc1c(C(=O)O)cccc1-n1c(C)cc(/C=C2\C(=O)NC(=O)N(c3ccc4c(c3)OCO4)C2=O)c1C — higher, 11.9%
- COc1ccc(/C=N/NC(=O)Cc2cccs2)cc1 — lower, -20.7%
- COC(=O)CCc1c(COC(C)=O)[nH]c(C(=O)OCc2ccccc2)c1C — higher, -2.7%
- Cc1cccc(N2CCN(C(=O)c3csc4ccccc34)CC2C)c1 (stereo not shown) — lower, -13%
- O=C1OC(C(=O)Nc2ccccc2)Cc2ccccc21 (stereo not shown) — higher, 14.5%
- O=C(CSc1ncn[nH]1)Nc1ccccc1C(=O)O — higher, 3.1%
- COc1ccc(-c2nn(-c3ccccc3)cc2/C=N/Nc2ccccn2)cc1OC — higher, 4.92%
- COC(=O)c1ccccc1NC(=O)CSc1n[nH]c(-c2ccncc2)n1 — higher, 6.6%
- Cc1noc(C)c1COc1ccc(CC(=O)NCCc2ccccc2)cc1 — higher, 6.93%
- Cc1nnc(C)c2c(C)n(C(c3ccccc3)c3ccccc3)c(C)c12 — lower, -71.4%
- Cc1nc(NCc2ccccn2)c2c3c(sc2n1)CCCC3 — lower, -28.6%
- COc1ccc(N2CC(C(=O)N[C@@H](C)C(=O)NC(C)c3ccccc3)CC2=O)cc1 (stereo partly shown) — higher, 7.6%
- Cc1cc(C)cc(NC(=O)CN2C(=O)COc3ccc(S(=O)(=O)N4CCCC4)cc32)c1 — higher, 9.24%
- COC(=O)c1ccccc1OCC(=O)N1CCN(c2ccc(F)cc2)CC1 — lower, -44.9%
- COC(=O)C1=C(C)N(Cc2ccccc2)C(=O)N[C@H]1CCc1ccccc1 — higher, 5.81%
- O=C(Nc1ccc(Cl)cc1)Nc1ccc2c(c1)OCO2 — higher, 17.6%
- Cc1ccc(S(=O)(=O)NC(=NC(C)C)c2ccccc2)cc1 — higher, 1.25%
- COc1ccc(S(=O)(=O)N2CCN(C(=O)C3CCCCC3)CC2)cc1 — higher, 16.4%
- COc1ccc(Nc2nnc(SCC3CCCO3)s2)cc1 (stereo not shown) — higher, -5.7%
- COC(=O)Cc1c[nH]c2cccc(OCC(O)CN(Cc3ccc([N+](=O)[O-])cc3)C(C)(C)C)c12.Cl (stereo not shown) — higher, -4.66%
- COc1ccc(S(=O)(=O)N2Cc3ccccc3CC2C(=O)N2CCOCC2)cc1 (stereo not shown) — lower, -59.2%
- CCc1nnc(NC(=O)c2ccc(-c3cccc(C(F)(F)F)c3)o2)s1 — higher, 22%
- CC1CCN(C(=O)C(=O)Nc2sc3c(c2C(=O)O)CC(C)(C)OC3)CC1 — higher, 17.1%
- COc1cc(C(=O)Nc2ccccc2SCc2cc(=O)n3nc(C)sc3n2)cc(OC)c1OC — higher, 1.99%
- O=C(NCCCN1CCCC1=O)c1ccc([N+](=O)[O-])s1 — lower, -18%
- O=C(Cc1coc2ccc3ccccc3c12)Nc1nnc(C2CC2)s1 — higher, 14.3%
- O=c1c(Cl)cc(Cl)nn1-c1ccccc1 — higher, 2.74%
- Cc1cccc(NC(=O)COc2cccc3c2CCN(C)C3=O)c1C — lower, -12.7%
- O=C(CN1CCCCCC1)Nc1ccc(Br)cc1[N+](=O)[O-] — higher, 14.1%
- O=C(c1cc(-c2ccco2)nc2ccccc12)N1CCCC(C(F)(F)F)C1 (stereo not shown) — higher, -4.86%
- COc1ccc(CCNC(=O)C(=O)NCC2OCCN2S(=O)(=O)c2ccccc2)cc1 (stereo not shown) — higher, -4.26%
- COc1ccccc1CNC(=O)CN1CCN(c2ccc(C(C)=O)cc2)CC1 — lower, -26.2%
- CC(C)c1ccc(N(CC(=O)NC2CCCCC2)C(=O)CNC(=O)c2ccco2)cc1 — lower, -24.7%
- O=C(O)c1cnc(-c2ccccc2)nc1Sc1ccccc1 — higher, 14.2%
- CC(C)CN(C(=O)CCCc1nc2ccccc2c(=O)[nH]1)c1c(N)n(Cc2ccccc2)c(=O)[nH]c1=O — higher, 23.1%
- CSCCC(NS(=O)(=O)c1c(Cl)cccc1Cl)C(=O)O (stereo not shown) — higher, 37.2%
- NC(=S)Nn1c(-c2ccccc2)nc2ccccc2c1=O — higher, 11.2%
- O=S(=O)(Nc1ccc(N2CCOCC2)cc1)c1cc(Cl)ccc1Cl — higher, 4.1%
- Cc1ccc(C(=O)CNc2nc3c(c(=O)[nH]c(=O)n3C)n2Cc2ccccc2)cc1 — higher, 6.01%
- CCOC(=O)c1ccccc1NS(=O)(=O)c1ccccc1 — lower, -16.4%
- CC(CNC(=O)c1ccc(OC2CCN(Cc3ccccn3)CC2)cc1)c1ccccc1 (stereo not shown) — lower, -76.5%
